Experimental data taken from the supplement of paper PMC8728848.
Some of the results follow.

Tests used:
Assay in all cases: glycan array binding signal (z-score within array); higher = stronger binding
Conditions in all cases: glycan notation: IUPAC condensed, linker removed
[1] = target: Gal(a1-3)Gal(b1-4)GlcNAc(b1-2)Man
Summary of the method: (§1)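 From the Consortium for Functional Glycomics database, 3228 arrays were curated, keeping only those whose protein sequence was available. Binding is given as a within-array Z-score averaged across arrays sharing a protein sequence and across linkers. Negative Z-scores can be read as non-binding.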

[2] = target: Gal(a1-3)Gal(b1-4)GlcNAc(b1-2)Man(a1-3)[Gal(a1-3)Gal(b1-4)GlcNAc(b1-2)Man(a1-6)]Man(b1-4)GlcNAc(b1-4)GlcNAc
Summary of the method: as §1

[3] = target: Gal(a1-3)Gal(b1-4)GlcNAc(b1-3)GalNAc
Summary of the method: as §1

[4] = target: Gal(a1-3)Gal(b1-4)GlcNAc(b1-6)GalNAc
Summary of the method: as §1

[5] = target: Gal(a1-3)Gal(b1-4)[Fuc(a1-3)]GlcNAc
Summary of the method: as §1

[6] = target: Gal(a1-3)Gal(b1-4)[Fuc(a1-3)]GlcNAc(b1-2)Man(a1-3)[Gal(a1-3)Gal(b1-4)[Fuc(a1-3)]GlcNAc(b1-2)Man(a1-6)]Man(b1-4)GlcNAc(b1-4)GlcNAc
Summary of the method: as §1

Gal(a1-3)GalNAc = target: Gal(a1-3)GalNAc
Summary of the method: as §1

[7] = target: Gal(a1-3)[Gal(a1-4)]Gal(b1-4)GlcNAc
Summary of the method: as §1

[8] = target: Gal(a1-4)Gal(b1-3)GlcNAc(b1-2)Man(a1-3)[Gal(a1-4)Gal(b1-3)GlcNAc(b1-2)Man(a1-6)]Man(b1-4)GlcNAc(b1-4)GlcNAc
Summary of the method: as §1

Gal(a1-4)Gal(b1-4)Glc = target: Gal(a1-4)Gal(b1-4)Glc
Summary of the method: as §1

Gal(a1-4)Gal(b1-4)GlcNAc = target: Gal(a1-4)Gal(b1-4)GlcNAc
Summary of the method: as §1

[9] = target: Gal(a1-4)Gal(b1-4)GlcNAc(b1-2)Man(a1-3)[Gal(a1-4)Gal(b1-4)GlcNAc(b1-2)Man(a1-6)]Man(b1-4)GlcNAc(b1-4)GlcNAc
Summary of the method: as §1

[10] = target: Gal(a1-4)Gal(b1-4)GlcNAc(b1-3)Gal(b1-4)Glc
Summary of the method: as §1

Gal(a1-4)GlcNAc = target: Gal(a1-4)GlcNAc
Summary of the method: as §1

Gal(a1-6)Glc = target: Gal(a1-6)Glc
Summary of the method: as §1

Gal(b1-2)Gal = target: Gal(b1-2)Gal
Summary of the method: as §1

Gal(b1-3)Gal = target: Gal(b1-3)Gal
Summary of the method: as §1

Gal(b1-3)Gal(b1-4)GlcNAc = target: Gal(b1-3)Gal(b1-4)GlcNAc
Summary of the method: as §1

Gal(b1-3)GalNAc = target: Gal(b1-3)GalNAc
Summary of the method: as §1

[11] = target: Gal(b1-3)GalNAc(a1-3)[Fuc(a1-2)]Gal(b1-4)Glc
Summary of the method: as §1

[12] = target: Gal(b1-3)GalNAc(a1-3)[Fuc(a1-2)]Gal(b1-4)GlcNAc
Summary of the method: as §1

Gal(b1-3)GalNAc(b1-3)Gal = target: Gal(b1-3)GalNAc(b1-3)Gal
Summary of the method: as §1

[13] = target: Gal(b1-3)GalNAc(b1-3)Gal(a1-4)Gal(b1-4)Glc
Summary of the method: as §1

[14] = target: Gal(b1-3)GalNAc(b1-4)Gal(b1-4)Glc
Summary of the method: as §1

[15] = target: Gal(b1-3)GalNAc(b1-4)[Neu5Ac(a2-3)]Gal(b1-4)Glc
Summary of the method: as §1

Gal(b1-3)GlcNAc = target: Gal(b1-3)GlcNAc
Summary of the method: as §1

[16] = target: Gal(b1-3)GlcNAc(a1-3)Gal(b1-4)GlcNAc
Summary of the method: as §1

[17] = target: Gal(b1-3)GlcNAc(a1-6)Gal(b1-4)GlcNAc
Summary of the method: as §1

Gal(b1-3)GlcNAc(b1-2)Man = target: Gal(b1-3)GlcNAc(b1-2)Man
Summary of the method: as §1

[18] = target: Gal(b1-3)GlcNAc(b1-2)Man(a1-3)[Gal(b1-3)GlcNAc(b1-2)Man(a1-6)]Man(b1-4)GlcNAc(b1-4)GlcNAc
Summary of the method: as §1

[19] = target: Gal(b1-3)GlcNAc(b1-2)Man(a1-3)[Gal(b1-3)GlcNAc(b1-2)Man(a1-6)]Man(b1-4)GlcNAc(b1-4)[Fuc(a1-6)]GlcNAc
Summary of the method: as §1

[20] = target: Gal(b1-3)GlcNAc(b1-2)Man(a1-3)[GlcNAc(b1-4)][Gal(b1-3)GlcNAc(b1-2)Man(a1-6)]Man(b1-4)GlcNAc(b1-4)GlcNAc
Summary of the method: as §1

[21] = target: Gal(b1-3)GlcNAc(b1-2)[Gal(b1-3)GlcNAc(b1-6)]Man(a1-6)[Gal(b1-3)GlcNAc(b1-2)Man(a1-3)]Man(b1-4)GlcNAc(b1-4)GlcNAc
Summary of the method: as §1

[22] = target: Gal(b1-3)GlcNAc(b1-3)Gal(b1-3)GlcNAc
Summary of the method: as §1

[23] = target: Gal(b1-3)GlcNAc(b1-3)Gal(b1-4)Glc
Summary of the method: as §1

[24] = target: Gal(b1-3)GlcNAc(b1-3)Gal(b1-4)GlcNAc
Summary of the method: as §1

[25] = target: Gal(b1-3)GlcNAc(b1-3)Gal(b1-4)GlcNAc(b1-2)Man(a1-3)[Gal(b1-3)GlcNAc(b1-3)Gal(b1-4)GlcNAc(b1-2)Man(a1-6)]Man(b1-4)GlcNAc(b1-4)GlcNAc
Summary of the method: as §1

[26] = target: Gal(b1-3)GlcNAc(b1-3)Gal(b1-4)GlcNAc(b1-2)[Gal(b1-3)GlcNAc(b1-3)Gal(b1-4)GlcNAc(b1-6)]Man(a1-6)[Gal(b1-3)GlcNAc(b1-3)Gal(b1-4)GlcNAc(b1-2)Man(a1-3)]Man(b1-4)GlcNAc(b1-4)[Fuc(a1-6)]GlcNAc
Summary of the method: as §1

[27] = target: Gal(b1-3)GlcNAc(b1-3)Gal(b1-4)GlcNAc(b1-3)Gal(b1-4)GlcNAc(b1-2)[Gal(b1-3)GlcNAc(b1-3)Gal(b1-4)GlcNAc(b1-3)Gal(b1-4)GlcNAc(b1-6)]Man(a1-6)[Gal(b1-3)GlcNAc(b1-3)Gal(b1-4)GlcNAc(b1-3)Gal(b1-4)GlcNAc(b1-2)Man(a1-3)]Man(b1-4)GlcNAc(b1-4)[Fuc(a1-6)]GlcNAc
Summary of the method: as §1

[28] = target: Gal(b1-3)GlcNAc(b1-3)Gal(b1-4)GlcNAc(b1-6)[Gal(b1-3)GlcNAc(b1-3)]Gal(b1-4)Glc
Summary of the method: as §1

[29] = target: Gal(b1-3)GlcNAc(b1-3)Gal(b1-4)[Fuc(a1-3)]GlcNAc
Summary of the method: as §1

[30] = target: Gal(b1-3)GlcNAc(b1-3)Gal(b1-4)[Fuc(a1-3)]GlcNAc(b1-6)[Gal(b1-3)GlcNAc(b1-3)]Gal(b1-4)Glc
Summary of the method: as §1

[31] = target: Gal(b1-3)GlcNAc(b1-3)GalNAc
Summary of the method: as §1

[32] = target: Gal(b1-3)GlcNAc(b1-6)Gal(b1-4)GlcNAc
Summary of the method: as §1

[33] = target: Gal(b1-3)GlcNAc(b1-6)GalNAc
Summary of the method: as §1

B1: rCnSL-A (Clitocybe nebularis) (protein)
chain: VNPNLPGPNDVFVGFRGTNNIVGAIYEKDGIKDTPLNNGADAEMGPGSYITDGLFTARIFASGSAGNNPGTTATVCKIYASGVQWRGAPKGYIPVAYFGNGPTAEQRRQTYLRTLGLPGTAIRFGNLNTNPGQGPTAPRQMVVPPGPLRSLLKASCFPAADTRLPQTLHYFEKRVDWNIITAADSQTWGH
With B1 the “glycan array binding signal (z-score)” value [1] was -0.224, the “glycan array binding signal (z-score)” value [2] was 0.104 and the “glycan array binding signal (z-score)” value [3] was -0.243. The “glycan array binding signal (z-score)” value [4] was -0.26, the “glycan array binding signal (z-score)” value [5] was -0.22 and the “glycan array binding signal (z-score)” value [6] was 0.487. For the same binder, the “glycan array binding signal (z-score)” value (Gal(a1-3)GalNAc) was -0.086, the “glycan array binding signal (z-score)” value [7] was -0.24 and the “glycan array binding signal (z-score)” value [8] was -0.141. The “glycan array binding signal (z-score)” value (Gal(a1-4)Gal(b1-4)Glc) was -0.211, the “glycan array binding signal (z-score)” value (Gal(a1-4)Gal(b1-4)GlcNAc) was -0.322 and the “glycan array binding signal (z-score)” value [9] was 0.459. The “glycan array binding signal (z-score)” value [10] was -0.286, the “glycan array binding signal (z-score)” value (Gal(a1-4)GlcNAc) was -0.272 and the “glycan array binding signal (z-score)” value (Gal(a1-6)Glc) was -0.218. The “glycan array binding signal (z-score)” value (Gal(b1-2)Gal) was -0.267, the “glycan array binding signal (z-score)” value (Gal(b1-3)Gal) was -0.169 and the “glycan array binding signal (z-score)” value (Gal(b1-3)Gal(b1-4)GlcNAc) was -0.132. The “glycan array binding signal (z-score)” value (Gal(b1-3)GalNAc) was -0.19, the “glycan array binding signal (z-score)” value [11] was -0.239 and the “glycan array binding signal (z-score)” value [12] was -0.222. For the same binder, the “glycan array binding signal (z-score)” value (Gal(b1-3)GalNAc(b1-3)Gal) was -0.258, the “glycan array binding signal (z-score)” value [13] was -0.216 and the “glycan array binding signal (z-score)” value [14] was -0.268. The “glycan array binding signal (z-score)” value [15] was -0.199, the “glycan array binding signal (z-score)” value (Gal(b1-3)GlcNAc) was -0.152 and the “glycan array binding signal (z-score)” value [16] was 0.566. The “glycan array binding signal (z-score)” value [17] was 0.459, the “glycan array binding signal (z-score)” value (Gal(b1-3)GlcNAc(b1-2)Man) was -0.106 and the “glycan array binding signal (z-score)” value [18] was 1.65. For the same binder, the “glycan array binding signal (z-score)” value [19] was -0.119, the “glycan array binding signal (z-score)” value [20] was 0.307 and the “glycan array binding signal (z-score)” value [21] was 0.503. For the same binder, the “glycan array binding signal (z-score)” value [22] was -0.048, the “glycan array binding signal (z-score)” value [23] was -0.176 and the “glycan array binding signal (z-score)” value [24] was -0.196. For the same binder, the “glycan array binding signal (z-score)” value [25] was 0.501, the “glycan array binding signal (z-score)” value [26] was 1.95 and the “glycan array binding signal (z-score)” value [27] was 3.37. For the same binder, the “glycan array binding signal (z-score)” value [28] was 0.569, the “glycan array binding signal (z-score)” value [29] was -0.207 and the “glycan array binding signal (z-score)” value [30] was 0.339. The “glycan array binding signal (z-score)” value [31] was -0.217, the “glycan array binding signal (z-score)” value [32] was 0.172 and the “glycan array binding signal (z-score)” value [33] was -0.15.
